The target of assay [1] is T1, human CD123 on AML cells and on normal blood cells (MOLM-13, THP-1, primary AML blasts, basophils) (human, UniProt P26951 19-378).
T1 sequence (looked up): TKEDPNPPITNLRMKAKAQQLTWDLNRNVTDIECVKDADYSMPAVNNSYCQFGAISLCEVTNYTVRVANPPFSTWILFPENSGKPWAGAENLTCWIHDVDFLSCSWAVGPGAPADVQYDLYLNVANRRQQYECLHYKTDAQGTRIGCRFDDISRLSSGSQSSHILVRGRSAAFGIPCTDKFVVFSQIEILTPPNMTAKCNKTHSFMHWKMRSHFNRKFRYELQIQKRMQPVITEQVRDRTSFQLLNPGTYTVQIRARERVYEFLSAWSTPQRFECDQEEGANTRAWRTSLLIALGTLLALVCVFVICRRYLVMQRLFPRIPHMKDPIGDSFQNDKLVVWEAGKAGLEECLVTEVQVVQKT
The assay is described as follows: cell-based or functional assay.

Assay [2] addresses T2, recombinant human CD123 (ACRO Biosystems, catalog no. ILA-H52H6) (human, UniProt P26951 19-305).
T2 construct: Bought protein; also called hCD123; CD123 (human molecules)
T2 sequence: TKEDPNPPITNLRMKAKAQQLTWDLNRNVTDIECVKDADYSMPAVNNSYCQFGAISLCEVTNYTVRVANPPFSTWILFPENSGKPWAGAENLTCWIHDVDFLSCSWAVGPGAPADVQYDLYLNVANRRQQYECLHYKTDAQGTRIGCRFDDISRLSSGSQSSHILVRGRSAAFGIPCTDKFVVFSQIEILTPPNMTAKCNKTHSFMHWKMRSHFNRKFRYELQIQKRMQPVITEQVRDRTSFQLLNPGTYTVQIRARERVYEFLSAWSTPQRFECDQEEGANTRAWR
The assay is described as follows: SPR (Biacore T200), antibody captured by anti-human Fc, CD123 as analyte, 1:1 model. A general note: In SPR one partner is held on a chip, and binding of the other changes the refractive index at the surface.

Assay [3] has as its target T3, recombinant Cynomolgus NKp46-FlagM2 extracellular domain (cynomolgus monkey, UniProt Q95JB9 17-254).
T3 construct: also called CynoNKp46; NKp46 (cynomolgus molecules)
T3 sequence: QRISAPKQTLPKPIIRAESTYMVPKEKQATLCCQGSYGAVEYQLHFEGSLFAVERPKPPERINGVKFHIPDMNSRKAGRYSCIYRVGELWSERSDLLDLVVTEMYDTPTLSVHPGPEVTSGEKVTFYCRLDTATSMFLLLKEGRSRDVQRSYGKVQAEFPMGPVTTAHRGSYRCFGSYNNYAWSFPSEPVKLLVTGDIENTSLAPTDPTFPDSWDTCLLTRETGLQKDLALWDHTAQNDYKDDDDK
The assay is described as follows: SPR (Biacore T200), antibody captured by anti-human Fc, NKp46 as analyte, 1:1 model.

Assay [4] deals with T4, recombinant human NKp46 extracellular domain with C-terminal 6xHis tag (human, UniProt O76036 22-255).
T4 construct: Made in CHO cells (Innate Pharma), purified on Ni-NTA and by size exclusion; analyte in SPR; also called hNKp46; Nkp46 (human molecules)
T4 sequence: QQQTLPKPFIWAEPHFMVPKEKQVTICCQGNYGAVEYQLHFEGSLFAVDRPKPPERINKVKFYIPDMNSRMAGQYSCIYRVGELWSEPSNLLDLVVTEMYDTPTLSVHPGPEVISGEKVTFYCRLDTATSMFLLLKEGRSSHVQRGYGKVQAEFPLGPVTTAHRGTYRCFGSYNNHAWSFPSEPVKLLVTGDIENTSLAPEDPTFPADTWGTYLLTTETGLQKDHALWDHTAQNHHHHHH
The assay is described as above.

The target in assay [5] is T2, recombinant human CD123 (ACRO …). The experiment in a line: SPR, mean +/- SD (n = 3).
The target of assay [6] is T4, recombinant human NKp46 extracellular …. The experiment in a line: SPR, mean +/- SD (n = 3).

Usually Kd stands for the free concentration of one partner at which half of the binding sites on the other are occupied at equilibrium, for simple one-to-one binding. Broadly, the koff is a measure of how fast the partners let go of each other. By kon is commonly meant a measure of how fast the partners come together.

B1: NKp46-CD123_F25 binding protein (bispecific antibody, human IgG1, kappa)
chain 1: DIVMTQSPDSLAVSLGERATINCESSQSLLSSGNQKNYLTWYQQKPGQPPKPLIYWASTRESGVPDRFSGSGSGTDFTLTISSLQAEDVAVYYCQNDYSYPYTFGQGTKLEIKRTVAAPSVFIFPPSDEQLKSGTASVVCLLNNFYPREAKVQWKVDNALQSGNSQESVTEQDSKDSTYSLSSTLTLSKADYEKHKVYACEVTHQGLSSPVTKSFNRGE[omitted - human IgG1 Fc]
chain 2: EVQLVQSGAEVKKPGESLKISCKGSGYSFTDYYMKWARQMPGKGLEWMGDIIPSSGATFYNQKFKGQVTISADKSISTTYLQWSSLKASDTAMYYCARSHLLRASWFAYWGQGTMVTVSSASTKGPSVFPLAPSSKSTSGGTAALGCLVKDYFPEPVTVSWNSGALTSGVHTFPAVLQSSGLYSLSSVVTVPSSSLGTQTYICNVNHKPSNTKVDKRV[omitted - human IgG1 Fc]TGSQVQLVQSGAEVKKPGSSVKVSCKASGYTFSDYVINWVRQAPGQGLEWMGEIYPGSGTNYYNEKFKAKATITADKSTSTAYMELSSLRSEDTAVYYCARRGRYGLYAMDYWGQGTTVTVSSASTKGPSVFPLAPSSKSTSGGTAALGCLVKDYFPEPVTVSWNSGALTSGVHTFPAVLQSSGLYSLSSVVTVPSSSLGTQTYICNVNHKPSNTKVDKRVEPKSCDKTHS
chain 3: DIQMTQSPSSLSASVGDRVTITCRASQDISNYLNWYQQKPGKAPKLLIYYTSRLHSGVPSRFSGSGSGTDFTFTISSLQPEDIATYFCQQGNTRPWTFGGGTKVEIKRTVAAPSVFIFPPSDEQLKSGTASVVCLLNNFYPREAKVQWKVDNALQSGNSQESVTEQDSKDSTYSLSSTLTLSKADYEKHKVYACEVTHQGLSSPVTKSFNRGEC
modifications: N-linked glycosylation at N297 (EU numbering) of the CH2 domain
notes: also called CD123-NKCE; CD123-NKp46_F25
On to B1, for which the “geometric mean EC50 of killing of MOLM-13 cells by healthy donor NK cells” value in assay [1] was determined as 0.0042 nM. Moreover, the Kd in assay [2] was determined as 0.24 nM; in assay [3], 67.9 nM; in assay [4] it was 17.5 nM; in assay [5], 0.4 nM; in assay [6], 16.6 nM. For the same molecule, the koff in assay [2] worked out at 2.85e-05 s⁻¹; in assay [3] it was 0.00247 s⁻¹; in assay [4], 0.000943 s⁻¹. The kon was 119000 M⁻¹ s⁻¹ in assay [2], 36400 M⁻¹ s⁻¹ in assay [3] and 53800 M⁻¹ s⁻¹ in assay [4].

Values taken from patent US20230416383A1 (INNATE PHARMA, published 2023).
